IC50 is the fitted dose that halves viability relative to control wells, and lower means more sensitive; where the fit passes the top or lowest dose, that dose stands as a limit. AUC, from the same fit, is the share of area under the viability curve across the 256-fold dose range; values near 1 show little effect. Where the top dose is marked as inferred, it comes from the curve model; the source does not state it. For part of these data: An entry number marks a drug with two screens in the source, which often give different values.
Columns and labels:
Experiment in all cases: Viability of human cancer cell lines after 72 h of drug (GDSC screen)
MLN4924 = compound: NS(=O)(=O)OC[C@@H]1C[C@@H](n2ccc3c(N[C@H]4CCc5ccccc54)ncnc32)C[C@@H]1O [MLN4924]; details: top dose 1 µM; top dose inferred
Protocol: (§1)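 Human cancer cell lines in 384-well plates, medium with 10% serum, drug for 72 h over a 256-fold dose range (nine 2-fold or five 4-fold steps up to the top dose). Adherent lines were fixed and stained with the nucleic acid dye Syto60, suspension lines read with resazurin; signal relative to control wells, capped at 0 and 100%. One two-parameter sigmoid per drug and line, fitted in a mixed model over all curves with the slope shared within a line.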

BMN-673 = compound: Cn1ncnc1[C@H]1c2n[nH]c(=O)c3cc(F)cc(c23)N[C@@H]1c1ccc(F)cc1 [BMN-673]; details: top dose 10 µM; top dose inferred
Protocol: as §1

AZD6482 = compound: Cc1cc([C@@H](C)Nc2ccccc2C(=O)O)c2nc(N3CCOCC3)cc(=O)n2c1 [AZD6482]
Protocol: as §1

[1] = top dose 5 µM, screen: GDSC drug entry 1066, top dose inferred
[2] = top dose 5.12 µM, screen: GDSC drug entry 156

Row | Cell Line | AUC (MLN4924) | IC50 (MLN4924) [µM] | AUC (BMN-673) | IC50 (BMN-673) [µM] | AUC (AZD6482; [1]) | IC50 (AZD6482; [1]) [µM] | AUC (AZD6482; [2]) | IC50 (AZD6482; [2]) [µM]
1 | KMS-11 (myeloma, suspension) | 0.838 | 0.539 | 0.959 | > 10 | 0.97 | > 5 | – | –
2 | KNS-62 (lung squamous cell carcinoma, adherent) | 0.765 | 0.538 | 0.947 | > 10 | 0.925 | > 5 | – | –
3 | KNS-81-FD (glioma, adherent) | 0.803 | 0.72 | 0.87 | > 10 | 0.798 | 3.44 | 0.926 | > 5.12
4 | KON (head and neck, adherent) | 0.516 | 0.069 | 0.573 | 0.988 | 0.973 | > 5 | 0.899 | > 5.12
5 | KOPN-8 (B-cell leukaemia, suspension) | 0.913 | > 1 | 0.468 | 0.517 | 0.93 | > 5 | 0.932 | > 5.12
6 | KOSC-2 (head and neck, adherent) | 0.825 | 0.638 | 0.697 | 2.31 | 0.928 | > 5 | 0.886 | > 5.12
7 | KP-1N (pancreas, adherent) | 0.956 | > 1 | 0.844 | 7.63 | 0.986 | > 5 | 0.928 | > 5.12
8 | KP-2 (pancreas, adherent) | 0.877 | > 1 | 0.962 | > 10 | 0.965 | > 5 | 0.945 | > 5.12
9 | KP-3 (pancreas, adherent) | 0.976 | > 1 | 0.961 | > 10 | 0.974 | > 5 | 0.88 | > 5.12
10 | KP-4 (pancreas, adherent) | 0.527 | 0.0737 | 0.902 | > 10 | 0.943 | > 5 | 0.958 | > 5.12
11 | KS-1 (glioma, adherent) | 0.675 | 0.219 | 0.877 | > 10 | 0.868 | > 5 | 0.847 | > 5.12
12 | KU812 (chronic myeloid leukaemia, suspension) | 0.881 | 0.887 | 0.864 | 7.49 | 0.976 | > 5 | 0.763 | 1.7
13 | KY821 (leukaemia, suspension) | 0.88 | 0.811 | 0.981 | > 10 | 0.815 | 2.31 | 0.992 | > 5.12
14 | KYM-1 (rhabdomyosarcoma, adherent) | 0.966 | > 1 | 0.638 | 1.42 | 0.915 | > 5 | 0.985 | > 5.12
15 | KYSE-70 (oesophagus, adherent) | 0.985 | > 1 | 0.915 | > 10 | 0.983 | > 5 | 0.948 | > 5.12
16 | KYSE-180 (oesophagus, adherent) | 0.944 | > 1 | 0.895 | > 10 | 0.988 | > 5 | 0.965 | > 5.12
17 | KYSE-270 (oesophagus, adherent) | 0.57 | 0.0941 | 0.707 | 2.17 | 0.977 | > 5 | 0.89 | 4.4
18 | KYSE-510 (oesophagus, adherent) | 0.769 | 0.317 | 0.743 | 2.68 | 0.954 | > 5 | 0.905 | 4.84
19 | KYSE-520 (oesophagus, adherent) | 0.943 | > 1 | 0.961 | > 10 | 0.938 | > 5 | 0.916 | > 5.12
20 | L-363 (myeloma, suspension) | 0.787 | 0.373 | 0.977 | > 10 | 0.92 | > 5 | 0.969 | > 5.12
21 | L-540 (Hodgkin lymphoma, suspension) | 0.87 | 0.762 | 0.458 | 0.488 | 0.99 | > 5 | 0.974 | > 5.12

Row | Cell Line | AUC (MLN4924) | IC50 (MLN4924) [µM] | AUC (BMN-673) | IC50 (BMN-673) [µM] | AUC (AZD6482; [1]) | IC50 (AZD6482; [1]) [µM] | AUC (AZD6482; [2]) | IC50 (AZD6482; [2]) [µM]
22 | L-1236 (Hodgkin lymphoma, suspension) | 0.925 | > 1 | 0.985 | > 10 | 0.806 | 2.08 | 0.988 | > 5.12
23 | LAMA-84 (chronic myeloid leukaemia, suspension) | 0.967 | > 1 | 0.985 | > 10 | 0.954 | > 5 | 0.974 | > 5.12
24 | LC4-1 (lymphoblastic leukaemia, suspension) | 0.909 | > 1 | 0.689 | 2.25 | 0.984 | > 5 | 0.81 | 3.05
25 | LC-2-ad (lung adenocarcinoma, adherent) | 0.747 | 0.327 | 0.607 | 1.24 | 0.935 | > 5 | 0.933 | > 5.12
26 | LCLC-103H (large cell lung carcinoma, adherent) | 0.963 | > 1 | 0.988 | > 10 | 0.906 | > 5 | 0.882 | 4.54
27 | LN-18 (glioma, adherent) | 0.878 | 0.688 | 0.949 | > 10 | 0.896 | 4.06 | 0.716 | 1.13
28 | LN-405 (glioma, adherent) | 0.971 | > 1 | 0.971 | > 10 | 0.74 | 1.86 | 0.76 | 2.25
29 | LNZTA3WT4 (glioma, adherent) | 0.822 | 0.57 | 0.815 | 5.34 | 0.972 | > 5 | 0.911 | > 5.12
30 | LOUCY (T-cell lymphoblastic leukaemia, suspension) | 0.929 | > 1 | 0.982 | > 10 | 0.916 | > 5 | 0.944 | > 5.12
31 | LS-411N (large intestine, adherent) | 0.915 | > 1 | 0.886 | > 10 | 0.912 | > 5 | 0.918 | > 5.12
32 | LU-99A (large cell lung carcinoma, adherent) | 0.603 | 0.119 | 0.541 | 0.805 | 0.964 | > 5 | 0.971 | > 5.12
33 | LU-134-A (small cell lung carcinoma, suspension) | 0.979 | > 1 | 0.862 | 9.48 | 0.94 | > 5 | 0.933 | > 5.12
34 | LU-135 (small cell lung carcinoma, suspension) | 0.984 | > 1 | 0.974 | > 10 | 0.975 | > 5 | 0.972 | > 5.12
35 | LU-139 (small cell lung carcinoma, suspension) | 0.98 | > 1 | 0.98 | > 10 | 0.886 | > 5 | 0.982 | > 5.12
36 | LU-165 (small cell lung carcinoma, suspension) | 0.987 | > 1 | 0.974 | > 10 | 0.988 | > 5 | 0.954 | > 5.12
37 | M14 (melanoma, adherent) | 0.902 | > 1 | 0.819 | 6.09 | 0.926 | > 5 | 0.968 | > 5.12
38 | MC116 (B-cell lymphoma, suspension) | 0.999 | > 1 | 0.999 | > 10 | 0.999 | > 5 | 0.769 | 1.43
39 | MC-IXC (neuroblastoma, adherent) | 0.812 | 0.37 | 0.024 | < 0.0391 | – | – | 0.963 | > 5.12
40 | MCF7 (breast, adherent) | 0.722 | 0.274 | 0.736 | 3.04 | 0.803 | 2.58 | 0.984 | > 5.12
41 | MDA-MB-157 (breast, adherent) | 0.822 | 0.607 | 0.899 | > 10 | 0.985 | > 5 | 0.938 | > 5.12
42 | MDA-MB-361 (breast, adherent) | 0.849 | 0.746 | 0.987 | > 10 | 0.856 | 3.97 | 0.83 | 3.17

Row | Cell Line | AUC (MLN4924) | IC50 (MLN4924) [µM] | AUC (BMN-673) | IC50 (BMN-673) [µM] | AUC (AZD6482; [1]) | IC50 (AZD6482; [1]) [µM] | AUC (AZD6482; [2]) | IC50 (AZD6482; [2]) [µM]
43 | MDA-MB-453 (breast, adherent) | 0.923 | > 1 | 0.916 | > 10 | 0.673 | 1 | 0.863 | > 5.12
44 | ME-1 (acute myeloid leukaemia, suspension) | 0.988 | > 1 | 0.987 | > 10 | 0.97 | > 5 | 0.958 | > 5.12
45 | ME-180 (cervix, adherent) | 0.679 | 0.203 | 0.863 | 9.29 | 0.945 | > 5 | 0.959 | > 5.12
46 | MEG-01 (chronic myeloid leukaemia, suspension) | 0.868 | 0.823 | 0.965 | > 10 | 0.988 | > 5 | 0.973 | > 5.12
47 | MEL-HO (melanoma, adherent) | 0.686 | 0.209 | 0.868 | 9.33 | 0.834 | 3.31 | – | –
48 | MEL-JUSO (melanoma, adherent) | 0.875 | > 1 | 0.932 | > 10 | 0.892 | > 5 | 0.857 | 4.95
49 | MFH-ino (soft tissue, adherent) | 0.754 | 0.392 | 0.673 | 2.08 | 0.927 | > 5 | 0.895 | > 5.12
50 | MHH-CALL-2 (B-cell leukaemia, suspension) | 0.991 | > 1 | 0.997 | > 10 | 0.987 | > 5 | – | –
51 | MHH-PREB-1 (B-cell leukaemia, suspension) | 0.847 | 0.623 | 0.903 | > 10 | 0.817 | 2.43 | 0.9 | > 5.12
52 | MKN1 (stomach, adherent) | 0.91 | > 1 | 0.965 | > 10 | 0.977 | > 5 | 0.962 | > 5.12
53 | MKN45 (stomach, adherent) | 0.841 | 0.978 | 0.919 | > 10 | 0.979 | > 5 | 0.982 | > 5.12
54 | ML-1 (thyroid, adherent) | 0.937 | > 1 | 0.861 | > 10 | 0.975 | > 5 | 0.972 | > 5.12
55 | ML-2 (acute myeloid leukaemia, suspension) | 0.618 | 0.127 | 0.471 | 0.526 | 0.966 | > 5 | 0.847 | 3.16
56 | MOLM-16 (acute myeloid leukaemia, suspension) | 0.946 | > 1 | 0.921 | > 10 | 0.547 | 0.413 | – | –
57 | MOLP-8 (myeloma, suspension) | 0.728 | 0.27 | 0.669 | 1.81 | 0.891 | > 5 | 0.827 | 2.97
58 | MOLT-4 (lymphoblastic leukaemia, suspension) | 0.855 | 0.575 | 0.563 | 0.896 | 0.921 | > 5 | 0.958 | > 5.12
59 | MOLT-13 (T-cell lymphoblastic leukaemia, suspension) | 0.733 | 0.261 | 0.718 | 2.37 | 0.986 | > 5 | – | –
60 | MONO-MAC-6 (acute myeloid leukaemia, suspension) | 0.611 | 0.128 | 0.717 | 2.68 | 0.758 | 1.83 | 0.915 | > 5.12
61 | MPP-89 (mesothelioma, adherent) | 0.862 | > 1 | 0.936 | > 10 | 0.884 | > 5 | 0.95 | > 5.12
